Results published in the supplement of paper PMC4967469.
A lower IC50 marks a more sensitive line; fits outside the tested doses are given as limits. The AUC spans the tested range (256-fold, ending at the top dose) of the same fit; it is 1 without any effect and falls as sensitivity rises. For some assays here: A top dose marked as inferred is not printed in the source and was worked back from the curve model.

What was measured:
Assay in all cases: Viability of human cancer cell lines after 72 h of drug (GDSC screen)
VX-11e = compound: Cc1cnc(Nc2ccc(F)cc2Cl)nc1-c1c[nH]c(C(=O)N[C@H](CO)c2cccc(Cl)c2)c1 [VX-11e]; details: top dose 5.12 µM; top dose inferred
Procedure: (§1)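 Human cancer cell lines in 384-well plates, medium with 10% serum, drug for 72 h over a 256-fold dose range (nine 2-fold or five 4-fold steps up to the top dose). Adherent lines were fixed and stained with the nucleic acid dye Syto60, suspension lines read with resazurin; signal relative to control wells, capped at 0 and 100%. One two-parameter sigmoid per drug and line, fitted in a mixed model over all curves with the slope shared within a line.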

BIX02189 = compound: CN(C)Cc1cccc(N=C(c2ccccc2)c2c(O)[nH]c3cc(C(=O)N(C)C)ccc23)c1 [BIX02189]; details: top dose 20 µM; top dose inferred
Procedure: as §1

UNC1215 = compound: O=C(c1ccc(C(=O)N2CCC(N3CCCC3)CC2)c(Nc2ccccc2)c1)N1CCC(N2CCCC2)CC1 [UNC1215]; details: top dose 1 µM; top dose inferred
Procedure: as §1

Doxorubicin = compound: COc1cccc2c1C(=O)c1c(O)c3c(c(O)c1C2=O)C[C@@](O)(C(=O)CO)C[C@@H]3O[C@H]1C[C@H](N)[C@H](O)[C@H](C)O1 [Doxorubicin]; details: top dose 1.024 µM
Procedure: as §1

OSI-027 = compound: COc1cccc2cc(-c3nc([C@H]4CC[C@H](C(=O)O)CC4)n4ncnc(N)c34)[nH]c12 [OSI-027]; details: top dose 20 µM
Procedure: as §1

Dimethyloxalylglycine = compound: COC(=O)CNC(=O)C(=O)OC [Dimethyloxalylglycine]; details: top dose 4000 µM; top dose inferred
Procedure: as §1

TG101348 = compound: Cc1cnc(Nc2ccc(OCCN3CCCC3)cc2)nc1Nc1cccc(S(=O)(=O)NC(C)(C)C)c1 [TG101348]; details: top dose 10.24 µM
Procedure: as §1

CCT018159 = compound: CCc1cc(-c2n[nH]c(C)c2-c2ccc3c(c2)OCCO3)c(O)cc1O [CCT018159]; details: top dose 10 µM; top dose inferred
Procedure: as §1

17-AAG = compound: C=CCNC1=C2C[C@@H](C)C[C@H](OC)[C@H](O)[C@@H](C)/C=C(\C)[C@H](OC(N)=O)[C@@H](OC)/C=C\C=C(/C)C(=O)NC(=CC1=O)C2=O [17-AAG]; details: top dose 1 µM
Procedure: as §1

Vismodegib = compound: CS(=O)(=O)c1ccc(C(=O)Nc2ccc(Cl)c(-c3ccccn3)c2)c(Cl)c1 [Vismodegib]; details: top dose 10 µM; top dose inferred
Procedure: as §1

| Cell Line | AUC (VX-11e) | IC50 (VX-11e) [µM] | AUC (BIX02189) | IC50 (BIX02189) [µM] | AUC (UNC1215) | IC50 (UNC1215) [nM] | AUC (Doxorubicin) | IC50 (Doxorubicin) [nM] | AUC (OSI-027) | IC50 (OSI-027) [µM] | AUC (Dimethyloxalylglycine) | IC50 (Dimethyloxalylglycine) [µM] | AUC (TG101348) | IC50 (TG101348) [µM] | AUC (CCT018159) | IC50 (CCT018159) [µM] | AUC (17-AAG) | IC50 (17-AAG) [nM] | AUC (Vismodegib) | IC50 (Vismodegib) [µM] |
| --- | --- | --- | --- | --- | --- | --- | --- | --- | --- | --- | --- | --- | --- | --- | --- | --- | --- | --- | --- | --- |
| HCC-827 (lung adenocarcinoma, adherent) | 0.981 | > 5.12 | 0.971 | > 20 | 0.983 | > 1000 | 0.843 | 891 | 0.736 | 6.64 | 0.48 | 219 | 0.817 | 6.88 | 0.804 | 5.93 | 0.88 | > 1000 |  |  |
| BCPAP (thyroid, adherent) | 0.871 | 4.06 | 0.944 | > 20 | 0.988 | > 1000 | 0.445 | 46 | 0.241 | 0.244 | 0.465 | 202 | 0.802 | 4.49 | 0.872 | 7.97 | 0.667 | 173 |  |  |
| NCI-H716 (large intestine, suspension) | 0.903 | > 5.12 | 0.79 | 11.5 | 0.971 | > 1000 | 0.978 | > 1020 | 0.751 | 8.14 | 0.79 | 2300 | 0.628 | 1.59 | 0.91 | > 10 |  |  | 0.778 | 5.17 |
| SW900 (lung squamous cell carcinoma, adherent) | 0.908 | > 5.12 | 0.952 | > 20 | 0.982 | > 1000 | 0.636 | 163 | 0.878 | > 20 | 0.787 | 2060 | 0.899 | > 10.2 | 0.957 | > 10 | 0.822 | 714 |  |  |
| MDA-MB-157 (breast, adherent) | 0.984 | > 5.12 | 0.984 | > 20 | 0.984 | > 1000 | 0.812 | 567 | 0.687 | 4.23 | 0.614 | 518 | 0.885 | > 10.2 | 0.925 | > 10 | 0.614 | 130 |  |  |
| VM-CUB-1 (bladder, adherent) | 0.981 | > 5.12 | 0.987 | > 20 |  |  | 0.549 | 86.9 | 0.975 | > 20 | 0.442 | 175 | 0.98 | > 10.2 | 0.825 | 5.72 | 0.435 | 41.9 |  |  |
| NCI-H1666 (lung adenocarcinoma, semi-adherent) | 0.974 | > 5.12 | 0.986 | > 20 | 0.985 | > 1000 | 0.858 | 976 | 0.802 | 11 | 0.374 | 108 | 0.867 | > 10.2 | 0.912 | > 10 |  |  | 0.976 | > 10 |
| OSC-19 (head and neck, adherent) | 0.964 | > 5.12 | 0.956 | > 20 | 0.975 | > 1000 | 0.449 | 46 | 0.851 | 16.2 | 0.403 | 134 | 0.883 | > 10.2 | 0.83 | 6.61 | 0.618 | 134 |  |  |
| CAL-54 (kidney, adherent) | 0.865 | > 5.12 | 0.952 | > 20 | 0.983 | > 1000 | 0.727 | 313 | 0.863 | > 20 | 0.676 | 837 | 0.849 | 9.42 | 0.901 | > 10 | 0.922 | > 1000 |  |  |
| PA-TU-8988T (pancreas, adherent) | 0.955 | > 5.12 | 0.961 | > 20 | 0.985 | > 1000 | 0.481 | 56.9 | 0.653 | 3.34 | 0.629 | 568 | 0.916 | > 10.2 | 0.872 | 9.6 |  |  | 0.987 | > 10 |
| HLE (liver, adherent) | 0.976 | > 5.12 | 0.934 | > 20 | 0.984 | > 1000 | 0.422 | 39.6 | 0.989 | > 20 | 0.27 |  | 0.982 | > 10.2 | 0.933 | > 10 | 0.895 | > 1000 |  |  |
| GAMG (glioma, adherent) | 0.948 | > 5.12 | 0.915 | > 20 | 0.983 | > 1000 | 0.499 | 63.6 | 0.273 | 0.273 | 0.698 | 931 | 0.834 | 7.12 | 0.868 | 9.89 | 0.456 | 47.1 |  |  |
| EFM-19 (breast, adherent) | 0.975 | > 5.12 | 0.884 | > 20 | 0.974 | > 1000 | 0.743 |  | 0.751 | 9.88 | 0.663 | 902 | 0.803 | 8.63 | 0.957 | > 10 |  |  | 0.97 | > 10 |
| U031 (kidney, adherent) | 0.926 | > 5.12 | 0.982 | > 20 | 0.979 | > 1000 | 0.735 | 309 | 0.615 | 2.62 | 0.539 | 321 | 0.828 | 6.61 | 0.815 | 5.73 | 0.689 | 216 |  |  |
| JHH-6 (liver, adherent) | 0.968 | > 5.12 | 0.96 | > 20 | 0.959 | > 1000 | 0.712 | 256 | 0.984 | > 20 | 0.514 | 273 | 0.987 | > 10.2 | 0.917 | > 10 |  |  | 0.987 | > 10 |
